The assay has as its target T1, CD20 (human, UniProt P11836 1-297).
T1 construct: whole, on cells; also called CD20 on Ramos cells
T1 sequence (looked up): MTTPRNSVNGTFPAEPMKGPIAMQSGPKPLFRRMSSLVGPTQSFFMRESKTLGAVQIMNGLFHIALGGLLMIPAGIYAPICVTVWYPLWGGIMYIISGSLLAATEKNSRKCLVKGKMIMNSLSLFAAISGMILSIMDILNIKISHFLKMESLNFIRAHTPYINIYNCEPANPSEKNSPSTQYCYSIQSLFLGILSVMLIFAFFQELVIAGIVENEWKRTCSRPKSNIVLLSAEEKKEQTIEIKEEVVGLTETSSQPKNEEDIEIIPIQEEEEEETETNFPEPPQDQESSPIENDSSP
Put plainly: saturation binding of radiolabeled fusion protein to Ramos cells (10^7 cells), nonlinear regression; avidity.

B1: B9E9 scFvSA (VH-VL 25-mer) (scFv)
chain: QVQLVQSGAELVKPGASVKMSCKASGYTFTSYNMHWVKQTPGQGLEWIGAIYPGNGDTSYNQKFKGKATLTADKSSSTAYMQLSSLTSEDSAVYYCARAQLRPNYWYFDVWGAGTTVTVSKISGGGGSGGGGSGGGGSGGGGSGGGGSSDIVLSQSPAILSASPGEKVTMTCRASSSVSYMHWYQQKPGSSPKPWIYATSNLASGVPARFSGSGSGTSYSLTISRVEAEDAATYYCQQWISNPPTFGAGTKLELKSSGSGSA[not shown - about 150 residues]
notes: monomer mass 43,401; It was radiolabeled in the avidity assay; also called B9E9 scFvSA (25-mer); B9E9 fusion protein
For B1, the Ka amounted to 8e+07 M⁻¹ and the Kd worked out at 12.4 nM.

The values above are taken from patent US20030095977A1 (published 2003).
